# The other results are listed elsewhere or left out.
# Legend:
# Assay in all cases: glycan array binding signal (z-score within array); higher = stronger binding
# Settings in all cases: glycan notation: IUPAC condensed, linker removed
# [1] = target: Gal(b1-4)GlcNAc(b1-2)Man(a1-3)[Gal(b1-4)GlcNAc(b1-2)Man(a1-6)]Man(b1-4)GlcNAc(b1-4)GlcNAc
# Method in brief: (§1)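 Negative Z-scores can be read as non-binding. The Z-score is calculated within each array and then averaged across arrays of one protein sequence at different concentrations or buffers and across linkers. Arrays, 3228 in all, were curated from the Consortium for Functional Glycomics database and kept only where the protein sequence was available.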
# [2] = target: Gal(b1-4)GlcNAc(b1-2)Man(a1-3)[Gal(b1-4)GlcNAc(b1-2)Man(a1-6)]Man(b1-4)GlcNAc(b1-4)[Fuc(a1-6)]GlcNAc
# Method in brief: as §1
# [3] = target: Gal(b1-4)GlcNAc(b1-2)Man(a1-3)[Gal(b1-4)GlcNAc(b1-2)][GlcNAc(b1-4)]Man(b1-4)GlcNAc(b1-4)GlcNAc
# Method in brief: as §1
# [4] = target: Gal(b1-4)GlcNAc(b1-2)Man(a1-3)[GlcNAc(b1-2)Man(a1-6)]Man(b1-4)GlcNAc(b1-4)GlcNAc
# Method in brief: as §1
# [5] = target: Gal(b1-4)GlcNAc(b1-2)Man(a1-3)[Man(a1-6)]Man(b1-4)GlcNAc(b1-4)GlcNAc
# Method in brief: as §1
# [6] = target: Gal(b1-4)GlcNAc(b1-2)Man(a1-6)Man(b1-4)GlcNAc(b1-4)GlcNAc
# Method in brief: as §1
# [7] = target: Gal(b1-4)GlcNAc(b1-2)Man(a1-6)[GlcNAc(b1-2)Man(a1-3)]Man(b1-4)GlcNAc(b1-4)GlcNAc
# Method in brief: as §1
# [8] = target: Gal(b1-4)GlcNAc(b1-2)Man(a1-6)[Man(a1-3)]Man(b1-4)GlcNAc(b1-4)GlcNAc
# Method in brief: as §1
# [9] = target: Gal(b1-4)GlcNAc(b1-2)[Gal(b1-4)GlcNAc(b1-4)]Man(a1-3)[Gal(b1-4)GlcNAc(b1-2)Man(a1-6)]Man(b1-4)GlcNAc(b1-4)GlcNAc
# Method in brief: as §1
# [10] = target: Gal(b1-4)GlcNAc(b1-2)[Gal(b1-4)GlcNAc(b1-4)]Man(a1-3)[Gal(b1-4)GlcNAc(b1-2)[Gal(b1-4)GlcNAc(b1-6)]Man(a1-6)]Man(b1-4)GlcNAc(b1-4)GlcNAc
# Method in brief: as §1
# [11] = target: Gal(b1-4)GlcNAc(b1-2)[Gal(b1-4)GlcNAc(b1-4)]Man(a1-3)[GlcNAc(b1-4)][Gal(b1-4)GlcNAc(b1-2)Man(a1-6)]Man(b1-4)GlcNAc(b1-4)GlcNAc
# Method in brief: as §1
# [12] = target: Gal(b1-4)GlcNAc(b1-2)[Gal(b1-4)GlcNAc(b1-4)]Man(a1-3)[GlcNAc(b1-4)][Gal(b1-4)GlcNAc(b1-2)[Gal(b1-4)GlcNAc(b1-6)]Man(a1-6)]Man(b1-4)GlcNAc(b1-4)GlcNAc
# Method in brief: as §1
# [13] = target: Gal(b1-4)GlcNAc(b1-2)[Gal(b1-4)GlcNAc(b1-6)]Man(a1-6)[Gal(b1-4)GlcNAc(b1-2)Man(a1-3)]Man(b1-4)GlcNAc(b1-4)GlcNAc
# Method in brief: as §1
# [14] = target: Gal(b1-4)GlcNAc(b1-2)[Gal(b1-4)GlcNAc(b1-6)]Man(a1-6)[GlcNAc(b1-4)][Gal(b1-4)GlcNAc(b1-2)Man(a1-3)]Man(b1-4)GlcNAc(b1-4)GlcNAc
# Method in brief: as §1
# [15] = target: Gal(b1-4)GlcNAc(b1-3)Gal(b1-3)GlcNAc
# Method in brief: as §1
# [16] = target: Gal(b1-4)GlcNAc(b1-3)Gal(b1-4)Glc
# Method in brief: as §1
# [17] = target: Gal(b1-4)GlcNAc(b1-3)Gal(b1-4)GlcNAc
# Method in brief: as §1
# [18] = target: Gal(b1-4)GlcNAc(b1-3)Gal(b1-4)GlcNAc(b1-3)Gal(b1-4)GlcNAc
# Method in brief: as §1
# [19] = target: Gal(b1-4)GlcNAc(b1-3)Gal(b1-4)[Fuc(a1-3)GlcNAc(b1-6)]Gal(b1-4)Glc
# Method in brief: as §1
# [20] = target: Gal(b1-4)GlcNAc(b1-3)Gal(b1-4)[Fuc(a1-3)]GlcNAc(b1-3)Gal(b1-4)[Fuc(a1-3)]GlcNAc
# Method in brief: as §1
# [21] = target: Gal(b1-4)GlcNAc(b1-3)GalNAc
# Method in brief: as §1
# [22] = target: Gal(b1-4)GlcNAc(b1-3)[Gal(b1-4)GlcNAc(b1-6)]Gal(b1-4)GlcNAc
# Method in brief: as §1
# [23] = target: Gal(b1-4)GlcNAc(b1-3)[Gal(b1-4)GlcNAc(b1-6)]GalNAc
# Method in brief: as §1
# [24] = target: Gal(b1-4)GlcNAc(b1-3)[GlcNAc(b1-6)]Gal(b1-4)GlcNAc
# Method in brief: as §1
# [25] = target: Gal(b1-4)GlcNAc(b1-6)Gal(b1-4)GlcNAc
# Method in brief: as §1
# [26] = target: Gal(b1-4)GlcNAc(b1-6)GalNAc
# Method in brief: as §1
# [27] = target: Gal(b1-4)GlcNAc(b1-6)[Gal(b1-3)]GalNAc
# Method in brief: as §1
# Gal(b1-6)Gal = target: Gal(b1-6)Gal
# Method in brief: as §1
# Gal3S(b1-3)GalNAc = target: Gal3S(b1-3)GalNAc
# Method in brief: as §1
# Gal3S(b1-3)GlcNAc = target: Gal3S(b1-3)GlcNAc
# Method in brief: as §1
# [28] = target: Gal3S(b1-3)[Fuc(a1-4)]GlcNAc
# Method in brief: as §1
# Gal3S(b1-4)Glc = target: Gal3S(b1-4)Glc
# Method in brief: as §1
# Gal3S(b1-4)Glc6S = target: Gal3S(b1-4)Glc6S
# Method in brief: as §1
# Gal3S(b1-4)GlcNAc = target: Gal3S(b1-4)GlcNAc
# Method in brief: as §1
# Gal3S(b1-4)GlcNAc6S = target: Gal3S(b1-4)GlcNAc6S
# Method in brief: as §1
# [29] = target: Gal3S(b1-4)[Fuc(a1-3)]Glc
# Method in brief: as §1
# [30] = target: Gal3S(b1-4)[Fuc(a1-3)]Glc6S
# Method in brief: as §1
# Gal3S4S(b1-4)GlcNAc = target: Gal3S4S(b1-4)GlcNAc
# Method in brief: as §1
# Gal3S6S(b1-4)GlcNAc = target: Gal3S6S(b1-4)GlcNAc
# Method in brief: as §1
# Gal3S6S(b1-4)GlcNAc6S = target: Gal3S6S(b1-4)GlcNAc6S
# Method in brief: as §1
# Gal4S(b1-4)GlcNAc = target: Gal4S(b1-4)GlcNAc
# Method in brief: as §1
# Gal4S6S(b1-4)GlcNAc = target: Gal4S6S(b1-4)GlcNAc
# Method in brief: as §1
# Gal6S(b1-3)GlcNAc = target: Gal6S(b1-3)GlcNAc
# Method in brief: as §1
# Gal6S(b1-3)GlcNAc6S = target: Gal6S(b1-3)GlcNAc6S
# Method in brief: as §1
# Gal6S(b1-4)Glc = target: Gal6S(b1-4)Glc
# Method in brief: as §1
binder,measurement,setting,value
"AFL (Aspergillus fumigatus), Q4WW81 (protein) STPGAQQVLFRTGIAAVNLTNHLRVYFQDVYGSIRESLYEGSWANGTEKNVIGNAKLGSPVAATSKELKHIRVYTLTEGNTLQEFAYDSGTGWYNGGLGGAKFQVAPYSRIAAVFLAGTDALQLRIYAQKPDNTIQEYMWNGDGWKEGTNLGGALPGTGIGATSFRYTDYNGPSIRIWFQTDDLKLVQRAYDPHKGWYPDLVTIFDRAPPRTAIAATSFGAGNSSIYMRIYFVNSDNTIWQVCWDHGKGYHDKGTITPVIQGSEVAIISWGSFANNGPDLRLYFQNGTYISAVSEWVWNRAHGSQLGRSALPPA",glycan array binding signal (z-score),[1],-0.386
same,glycan array binding signal (z-score),[2],1.32
same,glycan array binding signal (z-score),[3],-0.385
same,glycan array binding signal (z-score),[4],-0.381
same,glycan array binding signal (z-score),[5],-0.351
same,glycan array binding signal (z-score),[6],-0.384
same,glycan array binding signal (z-score),[7],-0.38
same,glycan array binding signal (z-score),[8],-0.383
same,glycan array binding signal (z-score),[9],-0.304
same,glycan array binding signal (z-score),[10],-0.354
same,glycan array binding signal (z-score),[11],-0.375
same,glycan array binding signal (z-score),[12],-0.368
same,glycan array binding signal (z-score),[13],-0.356
same,glycan array binding signal (z-score),[14],-0.37
same,glycan array binding signal (z-score),[15],-0.379
same,glycan array binding signal (z-score),[16],-0.386
same,glycan array binding signal (z-score),[17],-0.389
same,glycan array binding signal (z-score),[18],-0.383
same,glycan array binding signal (z-score),[19],0.547
same,glycan array binding signal (z-score),[20],0.622
same,glycan array binding signal (z-score),[21],-0.386
same,glycan array binding signal (z-score),[22],-0.383
same,glycan array binding signal (z-score),[23],-0.382
same,glycan array binding signal (z-score),[24],-0.392
same,glycan array binding signal (z-score),[25],-0.38
same,glycan array binding signal (z-score),[26],-0.34
same,glycan array binding signal (z-score),[27],-0.386
same,glycan array binding signal (z-score),Gal(b1-6)Gal,-0.39
same,glycan array binding signal (z-score),Gal3S(b1-3)GalNAc,-0.387
same,glycan array binding signal (z-score),Gal3S(b1-3)GlcNAc,-0.372
same,glycan array binding signal (z-score),[28],2.08
same,glycan array binding signal (z-score),Gal3S(b1-4)Glc,-0.384
same,glycan array binding signal (z-score),Gal3S(b1-4)Glc6S,-0.386
same,glycan array binding signal (z-score),Gal3S(b1-4)GlcNAc,-0.385
same,glycan array binding signal (z-score),Gal3S(b1-4)GlcNAc6S,-0.382
same,glycan array binding signal (z-score),[29],0.328
same,glycan array binding signal (z-score),[30],-0.034
same,glycan array binding signal (z-score),Gal3S4S(b1-4)GlcNAc,-0.381
same,glycan array binding signal (z-score),Gal3S6S(b1-4)GlcNAc,-0.382
same,glycan array binding signal (z-score),Gal3S6S(b1-4)GlcNAc6S,-0.381
same,glycan array binding signal (z-score),Gal4S(b1-4)GlcNAc,-0.386
same,glycan array binding signal (z-score),Gal4S6S(b1-4)GlcNAc,-0.383
same,glycan array binding signal (z-score),Gal6S(b1-3)GlcNAc,-0.391
same,glycan array binding signal (z-score),Gal6S(b1-3)GlcNAc6S,-0.385
same,glycan array binding signal (z-score),Gal6S(b1-4)Glc,-0.382

# Source: the supplement of paper PMC8728848
